In PubChem BioAssay AID1346428 (National Center for Advancing Translational Sciences (NCATS), 2018) one finds activation data, which are given here for 85 compounds.

Several values for one entry are separate records, joined by “and”; a condition that tells them apart may be missing. Equal entries are not always repeated. Screen size: about 48,000 compounds; about 1,200 (2.5%) were called active. About 2% were inconclusive and are not listed.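 Rule for the calls: active = activation of at least 60% and not above a set upper limit (about 1 call in 100 departs from these limits); inconclusive = activation of 40% to 60%, or above that upper limit; inactive = activation under 40%.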 This is one part of the list.

The target in the assay is Probable G-protein coupled receptor 32 (Homo sapiens) (UniProt O75388). Nature of the assay: qHTS for Agonists of Human Resolvin D1 Receptor DRV1. Note: 0% is about no effect. To be noted: CHO-K1 GPR32 beta-arrestin PathHunter luminescence, 90 min; at 76.9 µM; active compounds read high; zero percent set by DMSO-only wells. The gist of the method: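 Engineered CHO-K1 line co-expressing GPR32-ProLink and EA-beta-arrestin. Compound treatment lasted 90 min at 37 °C. Luminescence was recorded after 1 h with substrate at ambient temperature, relative to DMSO basal wells.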
Sequence of UniProt O75388 (O75388 whole entry, looked up): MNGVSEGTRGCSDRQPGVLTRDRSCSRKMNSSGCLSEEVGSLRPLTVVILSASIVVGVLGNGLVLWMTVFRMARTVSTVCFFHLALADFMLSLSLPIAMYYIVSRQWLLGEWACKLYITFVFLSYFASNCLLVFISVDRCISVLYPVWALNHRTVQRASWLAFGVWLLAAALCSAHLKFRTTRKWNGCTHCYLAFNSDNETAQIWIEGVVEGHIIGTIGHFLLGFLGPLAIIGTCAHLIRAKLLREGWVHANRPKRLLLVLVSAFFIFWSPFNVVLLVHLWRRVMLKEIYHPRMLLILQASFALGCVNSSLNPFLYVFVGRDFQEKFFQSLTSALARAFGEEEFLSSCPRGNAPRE
Consider `CCOC(=O)c1c(S(=O)(=O)N2CCCC(C(=O)Nc3ncccc3C)C2)c(C)n(C)c1C` (stereo not given), for which the activation was inactive: -17.3%.
As for `O=C(OCc1ccccc1Cl)c1ccc(-c2nnn(Cc3ccccc3Cl)n2)cc1`, the activation is inactive: -3.82%.
Take `Cc1ccc(NC(=O)CCc2c(C)nn(-c3ccc(N4CCOCC4)nn3)c2C)cc1F`: the activation is inactive: 29.2%.
On to `COc1ccc(N(C(=O)COc2ccc(Br)cc2)S(=O)(=O)c2ccc(C)cc2)cc1`, for which the activation is inactive: -5.31%.
Turning to `COc1ccc2c(c1)c1c(c(=O)n(-c3ccc(OC)c(OC)c3)c(=O)n1Cc1ccc(C)cc1)n2C`, the activation is inactive: 1.58%.
The result for `CCCCNC(=O)CCCn1c(=O)c2ccccc2n(Cc2ccc(Cl)cc2)c1=O` reads inactive: -12.3%.
With `COc1ccc(C2CC(=O)c3cnc4c(-c5ccccc5)c(C)nn4c3C2)c(OC)c1` (stereo not given) the figure was inactive: 8%; with `CC(C)(C)OC(=O)N1CCC(c2c(C(=O)N3CCOCC3)cnn2-c2ccccc2Cl)CC1`, inactive: -3.44%.
Take `Cc1cc2c(cc1C)-n1c(-c3ccccc3)c3c(=O)n(C)c(=O)n(C)c3c1C(c1ccco1)N2` (stereo not given): the activation is inactive: -5.25%.
With `COc1ccccc1CNC(=O)CCCn1c(=O)c2cccn2c2ccccc21` the figure was inactive: -17.7%; with `COc1ccc(-c2nc(SCC(=O)Nc3cccc(C(C)=O)c3)n[nH]2)cc1`, inactive: -2.1%.
Regarding `CCc1c(C)nc2nncn2c1Nc1cccc(C)c1`, the activation was inactive: -7.21%.
With `N#Cc1ccccc1S(=O)(=O)N1CCC(Oc2ccc(-n3cnnn3)cc2)CC1` the figure was inactive: 9.49%; with `O=C(Cc1ccccc1)Nc1cc(-c2nc3cc(Cl)ccc3o2)ccc1Cl`, inactive: -2.02%.
With `COc1ccc(Cc2nc3ccc(C(=O)NCc4cc(Br)ccc4OC)cc3o2)cc1` the figure was inactive: -23.4%; with `Fc1ccc(-c2noc3ncnc(N4CCCCC4)c23)cc1`, inactive: 4.96%.
`CNC(=O)C1CCN(C(=O)N2CC(C)Oc3ccc(C)cc32)CC1` (stereo not given): the activation was inactive: -7.04%.
`Cc1ccc(C)c(NC(=O)Cn2nnc(C(=O)NCc3ccco3)c2N)c1`: the activation is inactive: -4.27%.
Turning to `CCOC(=O)c1c(NC(=O)CS(=O)(=O)c2ccc(Cl)cc2)sc2c1CCCC2`, the activation is inactive: -7.85%.
The result for `COc1ccc(CCC(=O)NCc2nc3cccnc3n2Cc2ccc(OC)cc2)cc1` reads inactive: -13%; that for `COc1ccccc1N(C)C(=O)Cn1c(=O)oc2cc(S(=O)(=O)N3CCCC3)ccc21`, inactive: -7.67%.
The result for `O=C(O)CCNC(=O)c1ccc(N=Nc2ccc(O)c(C(=O)O)c2)cc1` reads inactive: -56.5%; that for `Cc1ccccc1CNC(=O)C1CCCN(c2nnc(-n3c(C)ccc3C)s2)C1` (stereo not given), inactive: 24.4%; that for `COc1ccc(-c2cc(C(=O)OCC(=O)c3cccc(OC)c3)c3cccc(Cl)c3n2)cc1`, inactive: -1.77%.
On to `CCOC(=O)c1c(NC(=O)c2cc(=O)c3c(C)cc(C)cc3o2)sc2c1CCC2`, for which the activation was inactive: -17%.
With `Cc1nn(C)c2c1c(C(F)(F)F)cc(=O)n2C(C)C(=O)N1CCN(c2ccccc2)CC1` (stereo not given) the figure was inactive: -1.23%; with `Cn1c(=O)c2c(ncn2CC(=O)Nc2cc(Cl)cc(Cl)c2)n(C)c1=O`, inactive: 4.9%; with `CCOC(=O)c1cc(-c2ccccc2)n(CCCC(=O)Nc2ccc(C)c(C)c2)c1C`, inactive: -24.2%.
With `Cn1cc(S(=O)(=O)N2CCCCCC2)cc1C(=O)N1CCN(c2ccc(Cl)cc2)CC1` the figure was inactive: -9.24%; with `Clc1ccc(CCNC(c2cccc(Cl)c2)c2nnc(-c3ccccc3)o2)cc1` (stereo not given), inactive: -26.9%.
`COc1ccc(Cl)cc1NC(=O)CSc1nc2ccccc2nc1N1CCCCC1`: the activation was inactive: -6.07%.
The result for `CCOC(=O)c1c(C)[nH]c(C)c1S(=O)(=O)N1CCN(c2ccccc2OC)CC1` reads inactive: -26.3%; that for `CCOC(=O)c1c(C)oc2ncnc(N3CCN(c4cccc(Cl)c4)CC3)c12`, inactive: -6.18%.
The result for `CCOC(=O)c1cccc(Nc2cc(C)nc(C)n2)c1` reads inactive: -1.64%; that for `Oc1ccc(Nc2nc(-c3ccc(Cl)cc3)nc3ccccc23)cc1`, inactive: -16.8%.
With `Cc1noc(Cn2c(=O)c3ccccc3n(CC(=O)Nc3ccccc3C(F)(F)F)c2=O)n1` the figure was inactive: -7.89%.
Turning to `Cc1cccc(-n2ncc3c(Nc4c(C)cc(C)cc4C)ncnc32)c1`, the activation is inactive: -33.1%.
Take `Cc1nnc2c3ccccc3nc(N3CCN(c4cccc(Cl)c4)CC3)n12`: the activation is inactive: -1%.
With `CCOCCCn1c(=N)c(C(=O)NC2CCCC2)cc2c(=O)n3cccc(C)c3nc21` the figure was inactive: -12.2%; with `CCCCOc1ccc(C2c3c(oc4ccccc4c3=O)C(=O)N2c2nc(C)c(C(=O)OCC)s2)cc1OC` (stereo not given), inactive: 15.5%; with `CCc1ccc(NC(=O)c2ccc3c(c2)c(C)c(C)n3Cc2ccccc2)cc1`, inactive: -5.7%.
The result for `CCc1ccc(NC(=O)c2oc3c(c2C)-c2[nH]ncc2CC3)cc1` reads inactive: 4.96%; that for `COc1ccccc1CNC(=O)CN1C(=O)CCCc2ccccc21`, inactive: -17%.
Regarding `O=C(CCC1N=C2c3ccccc3N=C(SCc3cccc(F)c3)N2C1=O)NCc1ccc(F)cc1` (stereo not given), the activation was inactive: -8.72%.
Consider `Cc1ccc(CCNC(=O)CN2CCN(Cc3ccc(Cl)cc3)C2=O)cc1`, for which the activation is active: 60.1%.
With `CC(=O)c1ccc(NC(=O)c2ccc(CN3C(=O)CCn4nc(C)cc43)cc2)cc1` the figure was inactive: -6.29%.
For the compound `Cc1ccc(S(=O)(=O)Nc2ccc3c(c2)c(C(=O)OC(C)C)c(C)n3S(=O)(=O)c2ccc(C)cc2)cc1`, the activation was inactive: -28.6%.
On to `COc1ccc(S(=O)(=O)NCCc2cn3ccsc3n2)cc1`, for which the activation is inactive: -9.88%.
The result for `CCc1ccc(NC(=O)Cn2nnc(C(=O)Nc3cc(C)ccc3OC)c2N)cc1` reads active: 74.3%; that for `O=C(Nc1ccccc1Br)N1CCN2CCCCC2C1` (stereo not given), inactive: -3.8%; that for `CCc1ccc(NC(=O)CN2C(=O)CCSc3ccc(S(=O)(=O)N4CCCC4)cc32)cc1`, inactive: -7.59%.
With `COc1ccc(C(=O)c2cn(Cc3cccc(C)c3)c3cc4c(cc3c2=O)OCCO4)cc1OC`, the activation was inactive: -17.3%.
`NC1CCN(c2cccc(Cl)n2)CC1`: the activation was inactive: 32.9% and inactive: -14.7%.
Take `Cc1nn2c(=O)cc(COC(=O)c3ccc(F)cc3)nc2s1`: the activation is inactive: -14.2%.
The result for `CC1C(=O)N(C)C(=O)c2nc[nH]c21` (stereo not given) reads inactive: -0.0662%; that for `COC(=O)c1ccccc1NC(=O)c1cc(=O)c2ccc(C)c(C)c2o1`, inactive: 1.06%.
In the case of `Cn1nnnc1SCCCNCc1ccccc1OCc1ccccc1F`, the activation is inactive: -0.159%.
As to `Cc1ccc(N(C(=O)c2cccc(C)c2)S(=O)(=O)c2ccc(Cl)cc2)cc1`, the activation is inactive: -10.5%.
Take `CCN(CC)CCNC(=O)Cn1ncc2c3ccccc3n(Cc3ccccc3C)c2c1=O`: the activation was inactive: 6.36%.
The result for `COc1ccc(CCNC(=O)Cn2ccc3cc(S(=O)(=O)N4CCCCC4)ccc32)cc1OC` reads inactive: -16%; that for `COc1ccc(Cn2ccc3nc(C)c(C(=O)Nc4ccc(OC)cc4OC)cc3c2=O)cc1`, inactive: -8.42%.
With `O=C1Nc2cc(Cl)ccc2Oc2cc(Oc3ccccc3)ccc21` the figure was inactive: 22.6%.
For `Cc1ccc(NC(=O)Cn2cc(S(=O)(=O)NC(C)C)c(S(=O)(=O)NC(C)C)c2)cc1Cl`, the activation was active: 68.9%.
In the case of `Cc1ccc(C)c(CN2C(=O)c3ccccc3S(=O)c3ccc(C(=O)NCc4ccco4)cc32)c1` (stereo not given), the activation is inactive: -10.1%.
With `Cc1ccc(NC(=O)Cn2c(=O)n(CCc3ccccc3)c(=O)c3c4c(sc32)CCCC4)cc1C` the figure was inactive: -16.6%.
`Cc1cc(C)c(S(=O)(=O)Nc2cccc(-c3cn4ccccc4n3)c2)c(C)c1`: the activation was inactive: -9.89%.
For `O=C(C1CC1)N1CCc2cc(Br)cc(S(=O)(=O)N3CCN(c4ccccc4F)CC3)c21`, the activation is inactive: -8.77%.
Regarding `Cc1ccc(N2CC(NC(=O)/C=C\c3ccc4c(c3)OCO4)CC2=O)cc1` (stereo not given), the activation is inactive: -0.258%.
Turning to `COc1ccc(CNC(=O)Cn2ccc3cc(S(=O)(=O)N4CCCCCC4)ccc32)c(OC)c1`, the activation is inactive: -6.35%.
Turning to `COc1ccc(Oc2nc3c(c(=O)n(Cc4ccccc4Cl)c(=O)n3C)n2C)cc1`, the activation was inactive: 15.5%.
The result for `COC(=O)c1c(SCC(=O)Nc2ccccc2OC)[nH]c2ccccc2c1=O` reads inactive: -20.7%.
Consider `Cc1cc2ccccc2n1-c1ccc(C(=O)N2CCC(C(=O)NCc3ccc(F)cc3)CC2)s1`, for which the activation is inactive: -9.18%.
Regarding `CC(C)n1c(=O)c2oc3ccccc3c2n(Cc2ccccc2F)c1=O`, the activation is inactive: -9%.
For `Cc1ccc(-c2nnc(Nc3ccc(O)cc3)c3ccccc23)cc1S(=O)(=O)NCC1CCCO1` (stereo not given), the activation is inactive: -56.7%.
As to `O=C(/C=C/c1ccco1)Nc1ccc(Cl)c(-c2nc3cc(Cl)ccc3o2)c1`, the activation was inactive: -29.3%.
Regarding `Cc1ccc(NC(=O)C2CCN(c3nn4c(=O)cc(C)nc4s3)CC2)cc1`, the activation was inactive: -18.2%.
For `Cc1c(Cl)cccc1NC(=O)CSc1cc(-c2ccccc2)ncn1`, the activation was inactive: -7.67%.
Consider `COc1cccc(NC(=O)c2ccc(CNS(=O)(=O)c3ccc4c(c3)C(C)(C)C(=O)N4C)cc2)c1`, for which the activation was inactive: -4.86%.
The result for `CC12CN3CC(C)(CN(C1)C3c1ccc(OCc3ccccc3)cc1)C2=O` (stereo not given) reads inactive: 6.63%; that for `CCOC(=O)c1cccc(NC(=O)CCNS(=O)(=O)c2cccc3nonc23)c1`, inactive: -14.3%.
The result for `CN(C)c1cccc(C(=O)Nc2ccc(-c3nc4ccccc4s3)cc2)c1` reads inactive: -3.87%; that for `O=c1cc(CO)occ1O`, inactive: -20.5%.
With `O=C(CSc1nc2c(oc3ccccc32)c(=O)[nH]1)Nc1cccc(Cl)c1`, the activation is inactive: 3.74%.
The result for `CC1=C(c2ccc(Cl)cc2)S(=O)(=O)NC1=NCc1ccc(C)cc1` reads inactive: -10.5%.
Turning to `COc1ccc(-c2nc3scc(CCNS(=O)(=O)c4cccc(C(C)=O)c4)n3n2)cc1`, the activation was inactive: -8.68%.
